Measurements as given in the RNAGym collection of RNA variant scans (doi:10.7554/elife.90254).
The source gives no read counts; variants with many changes may rest on few reads.

B1: OR4K15 (parent)
chain: GUUAACGGUCAUAGGCCAUGGAAACUAGGAGCACCAUUUCGCUGCCAGUGAAGAAAUGAACAAAGAAAAUCUGGGCCAGGCAGGCAUCAAAAGAAAUAGUCUUGCGCUCAACCAGAAAGUCUGUAAUCAUUUUAAGGGUA

Variants of: B1
Assay: self-cleavage, relative activity (ratio to wild type); higher = more cleavage; in vitro, sequencing; the parent is a self-cleaving ribozyme
Variant GUUAACGGUCAUAGGCCAUGGAAACUAGGAGCACCAUUUCGCUGCCAGUGGAGAAAUGAGCAAAGAAAAUCUGGGCCAGGCAGGCAUCAAAAGGAAUAGUCUUGCGCUCAACCAGAGGGUCUGUAAUCAUUUUAAGGGUA has a self-cleavage of 1.44.
Variant GUUAACAGUCAUAGGCCAUGGAAACUAGGAGCACCAUUUCGCUGCCAGUGAAGAAAUGAACAAAGAAAACCUGGGCCAGGCAGGCAUCAAAAGAAGUAGUCUUGCGCUCAUCCAGAAAGUCUGUAAUCAUUUUAAGGGUA has a self-cleavage of 0.05.
GUUAACGGUCAUAGGCCAUGGAAACUAGGAGCACCAUUUCGCUGCCAGUGAAGAAAUGAACAAAGAAAACCUGGGCCAGGCAGGCGCCAAAAGAAAUAGUCUCGCGCUCAACCAGAAAGUCUGUAAUCAUUUUAAGGGUA showed a self-cleavage of 0.04.
For GUUAACGGUCAUAGGCCAUGGAAACUAGGAGCACCAUUUCGCUGCCAGUGAAGAAAUGAACAAAGAAAAUCUGGACCAGGCAGGCAUCAAAAGAAAUAGUCUUGCGCUCAACCAGAAAGUCAGUAAUCACUUUAAGGGUA, the self-cleavage was 0.06.
GUUAGCGGUCAUAGGCCAUGGAAACUAGGAGCACCAUUUCGCUGCCAGUGAAGAAACGAACAAAGAAAAUCUGGGCCAGGCAGGCAUCAAAAGAAAUAGUCUUUCGCUCAACCAGAAAGUCUGUAAUCAUUUUAAGGGUA showed a self-cleavage of 0.11.
With GUUAACUGUCAUAGGCCAUGGAAACUAGGAGCACCAUUUAGCUGCCAGUGAAGAAAUGAACAAAGAGAAUCUGGGCCAGGCAGGCAUCAAAAGAAAUAGUCUUGCGCUCAACCAAAAGGUCAGUAAUCAUUUUAAGGGUA the self-cleavage was 0.01.
In the case of GUUAGCGGUCAUAAGCCAUGGAAACUAGGAGCACCAUUUCGCUGCCAGUGAAGGAAUGAACAAGGAAAAUCUGGGCCAGGCAGGCAUCAAAAGAAAUAGUCUUGCGCUCAACCAGAAAGUCUGUAAUCAUUUUAAGGGUA, the self-cleavage is reported as 0.9.
With GUUAACGGUCAUAGGCCAUGGAAACUAGGAGCACCAUUUCGCUGCCAGUGAAGAAAUGAACAAAGAAAGUCUGCGCCAGGCAGGCAUCAAAAGAAAUAGCCUUGCGCUCAACCAGAAAGUCUGUAAUCAUUUUAAGGGUA the self-cleavage was 0.23.
GUUAACGGUCAUAGGCCAUGGAAGCUAGGAGCACCAUUUCGCUGCCAGUGAAGAAAUGAACAAAGAAAAUCUGGGCCAGGCGGGCAUCAAAGGAAAUAGUCUUGCGCUCAACCAGAAAGUCUGUAACCAUUUUAAGGGUA gave a self-cleavage of 0.16.
Variant GUUAACGGUCAUAGGCCAUGGAAACUAGGAGCACCAUUUCGCUGCCAGUGAAGAAAUGAACAAAGGAAGUCUGGGCCAGGCAGGCAUCAACAGAAAUAGUCUUGCGCUCAACCAGAAAGUCUGUAAUCAUUUUAAGGGUA has a self-cleavage of 1.36.
For GUUAACGGUCAUAGGCCAUGGAGACUAGGAGCACCAUUUCGCUGCCAGUGAAGAAAUGAACAAAGAAAAUCUGGGCCAGGCAGGCAUCAAAAGAAAUAGCCAUGCGCUCAACCAGAAAGUCUGUAAUCAUUUUAAGGGUA, the self-cleavage was 1.82.
For GUUAACGGUCAUAGGCCAUGGAAACUAGGAGCACCAUUUCGCUGCCAGUGAAGAAAAGAACAAAGAGAAUCUGGACCAGGCAGGCAUCAAAAGAAAUAGUCUUGCGCCCAACCAGAGAGUCUGUAAUCUUUUUAAGGGUA, the self-cleavage was 0.01.
GUUAGCGGUCAUAGGCCAUGGAAACUAGGAGCACCAUUUCGCUGCCAGUGAAGAGAUGAACAAAGAAAAUCGGGGCCAGGCAGGCAUCAAAAGAAAUAGUCUUGCGCUCAACCAGAAAGUCUGUAAUCAUUUUAAGGGUA gave a self-cleavage of 0.37.
With GUUAACGGUCUUAGGCCAUGGAAACUAGGAGCACCAUUUCGCUGCCAGUGAAGAAAUGAACAAAGAAAAUCUGGGCCAGGCAGGCAUCAAAAGGAAUAGUCUUGCGCUUAACCAGAAAGUCUGUUAUCAUUUUAAGGGUA the self-cleavage was 0.61.
For GUUAACGGUCAUAGGCCACGGAAACUAGGAGCACCAUUUCGCUGCCAGUGAAGAAAAGAACAAAGAAAAUCUGGGCCAGGCAGGCAUCAAAAGAAAUUGUCUUGCGCUCAACCAGAAAGUCCGUAAUCAUUUUAAGGGUA, the self-cleavage was 2.25.
GUUAACGGUCAUAGGCCAUGGAAACUAGGAGCACCAUUUCGCUGCCAGUGGAGAAAUGAACGAAGAAAAUCUGGGCCAGGCAGGCAUCAAAAGAAGUAGUCUUGCGCUCAACCAGAAAGUCUGUAAUCAUUUUAAGGGUA gave a self-cleavage of 1.76.
In the case of GUUAACGGUCAUAGGCCCUGGAAACUAGGAGCACCAUCUCGCUGCCAGUGAAGAAAUGAACAAAGAAAAUCUGGGCCAGGCAGGCAUCAAAAGAAAUAGUCUUGCGCUCAACCAGAAAGUCUGCAAUCAUUUUAAGGGUA, the self-cleavage is reported as 1.26.
With GUUAACGGUCACAGGCCGUGGAAACUAGGAGCACCAUUUCGCUGCCAGUGAAGAAAUGAACAAAGAAAAUCUGGGCCAGGCAGGCAUCAAAAGAAAUAGUCUUGCGCUCAACCAGAAGGUCUGUAAUCAUUUUAAGGGUA the self-cleavage was 2.96.
GUUAACGGUCAUAGGCCAUGGGAACUAGGAGCACCAUUUCGCUGCCAGCGAAGAAAUGAACAAAGAAAAUCUGGGCCAGGCAGGCAUCAAAAGAAAUAGUCAUGCGCUCAACCAGAAAGUCUGUAAUCAUUUUAAGGGUA showed a self-cleavage of 0.5.
With GCUAACGGUCAUAGGCCAUGGAAACUAGGAGCACCAUUUCGCUGCCAGUGAAGAAAUGUACAAAGAAAAUCUGGGCCAGGCAGGCAUCAAAAGAAAUAGUCUUGCGCUCAACCAGAAAGUCCGUAAUCAUUUUAAGGGUA the self-cleavage was 1.24.
GUUAACAGUCAUAGGCCAUGGAAACUAGGAGCACCAUUUCGCUGCCAGUGAAGAAAUGAACAAAGAAAAUCUGGGCCAGGCAGGCAUCAAAAGAAAUAGUCUUGCGCUCAACCAGAAAGUCUGUGAUCAUCUUAAGGGUA gave a self-cleavage of 0.42.
